# According to the supplement of paper PMC8728848:
# Some of the results follow.
# What was measured:
# Experiment in all cases: glycan array binding signal (z-score within array); higher = stronger binding
# Settings in all cases: glycan notation: IUPAC condensed, linker removed
# [1] = biological target: Man(a1-2)Man(a1-3)[Man(a1-2)Man(a1-6)]Man
# How it was run: (§1)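 The Consortium for Functional Glycomics database supplied 3228 glycan arrays, of which those lacking an available protein sequence were dropped. The binding signal, a within-array Z-score, was averaged across arrays of the same protein sequence and across linkers. Negative scores can be read as non-binding.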
# [2] = biological target: Man(a1-2)Man(a1-3)[Man(a1-2)Man(a1-6)]Man(a1-6)[Man(a1-2)Man(a1-2)Man(a1-3)]Man
# How it was run: as §1
# [3] = biological target: Man(a1-2)Man(a1-3)[Man(a1-2)Man(a1-6)]Man(a1-6)[Man(a1-2)Man(a1-2)Man(a1-3)]Man(b1-4)GlcNAc(b1-4)GlcNAc
# How it was run: as §1
# [4] = biological target: Man(a1-2)Man(a1-3)[Man(a1-6)]Man(a1-6)[Man(a1-2)Man(a1-3)]Man(b1-4)GlcNAc(b1-4)GlcNAc
# How it was run: as §1
# [5] = biological target: Man(a1-2)Man(a1-6)[Man(a1-3)]Man(a1-6)[Man(a1-2)Man(a1-2)Man(a1-3)]Man
# How it was run: as §1
# [6] = biological target: Man(a1-2)Man(a1-6)[Man(a1-3)]Man(a1-6)[Man(a1-2)Man(a1-2)Man(a1-3)]Man(b1-4)GlcNAc(b1-4)GlcNAc
# How it was run: as §1
# Man(a1-3)[Man(a1-6)]Man = biological target: Man(a1-3)[Man(a1-6)]Man
# How it was run: as §1
# [7] = biological target: Man(a1-3)[Man(a1-6)]Man(a1-6)[Man(a1-2)Man(a1-3)]Man(b1-4)GlcNAc(b1-4)GlcNAc
# How it was run: as §1
# [8] = biological target: Man(a1-3)[Man(a1-6)]Man(a1-6)[Man(a1-3)]Man
# How it was run: as §1
# [9] = biological target: Man(a1-3)[Man(a1-6)]Man(a1-6)[Man(a1-3)]Man(b1-4)GlcNAc(b1-4)GlcNAc
# How it was run: as §1
# [10] = biological target: Man(a1-3)[Man(a1-6)]Man(b1-4)GlcNAc(b1-4)GlcNAc
# How it was run: as §1
# [11] = biological target: Man(a1-3)[Man(a1-6)]Man(b1-4)GlcNAc(b1-4)[Fuc(a1-6)]GlcNAc
# How it was run: as §1
# Man(a1-6)Man = biological target: Man(a1-6)Man
# How it was run: as §1
# Man(b1-4)GlcNAc = biological target: Man(b1-4)GlcNAc
# How it was run: as §1
# MurNAc(b1-4)GlcNAc = biological target: MurNAc(b1-4)GlcNAc
# How it was run: as §1
# Neu5Ac(a2-3)Gal = biological target: Neu5Ac(a2-3)Gal
# How it was run: as §1
# [12] = biological target: Neu5Ac(a2-3)Gal(b1-3)GalNAc
# How it was run: as §1
# [13] = biological target: Neu5Ac(a2-3)Gal(b1-3)GalNAc(b1-3)Gal(a1-4)Gal(b1-4)Glc
# How it was run: as §1
# [14] = biological target: Neu5Ac(a2-3)Gal(b1-3)GalNAc(b1-4)[Neu5Ac(a2-3)]Gal(b1-4)Glc
# How it was run: as §1
# [15] = biological target: Neu5Ac(a2-3)Gal(b1-3)GalNAc(b1-4)[Neu5Ac(a2-8)Neu5Ac(a2-3)]Gal(b1-4)Glc
# How it was run: as §1
# [16] = biological target: Neu5Ac(a2-3)Gal(b1-3)GalNAc6S
# How it was run: as §1
# [17] = biological target: Neu5Ac(a2-3)Gal(b1-3)GlcNAc
# How it was run: as §1
# [18] = biological target: Neu5Ac(a2-3)Gal(b1-3)GlcNAc(b1-2)Man
# How it was run: as §1
# [19] = biological target: Neu5Ac(a2-3)Gal(b1-3)GlcNAc(b1-2)Man(a1-3)[GlcNAc(b1-4)][Neu5Ac(a2-3)Gal(b1-3)GlcNAc(b1-2)Man(a1-6)]Man(b1-4)GlcNAc(b1-4)GlcNAc
# How it was run: as §1
# [20] = biological target: Neu5Ac(a2-3)Gal(b1-3)GlcNAc(b1-2)Man(a1-3)[Neu5Ac(a2-3)Gal(b1-3)GlcNAc(b1-2)Man(a1-6)]Man(b1-4)GlcNAc(b1-4)GlcNAc
# How it was run: as §1
# [21] = biological target: Neu5Ac(a2-3)Gal(b1-3)GlcNAc(b1-3)Gal(b1-3)GlcNAc
# How it was run: as §1
# [22] = biological target: Neu5Ac(a2-3)Gal(b1-3)GlcNAc(b1-3)Gal(b1-4)GlcNAc
# How it was run: as §1
# [23] = biological target: Neu5Ac(a2-3)Gal(b1-3)GlcNAc(b1-3)GalNAc
# How it was run: as §1
# [24] = biological target: Neu5Ac(a2-3)Gal(b1-3)GlcNAc(b1-4)Gal(b1-4)Glc
# How it was run: as §1
# [25] = biological target: Neu5Ac(a2-3)Gal(b1-3)GlcNAc(b1-6)GalNAc
# How it was run: as §1
# [26] = biological target: Neu5Ac(a2-3)Gal(b1-3)GlcNAc6S
# How it was run: as §1
# [27] = biological target: Neu5Ac(a2-3)Gal(b1-3)[Fuc(a1-4)]GlcNAc
# How it was run: as §1
# [28] = biological target: Neu5Ac(a2-3)Gal(b1-3)[Fuc(a1-4)]GlcNAc(b1-3)Gal(b1-3)[Fuc(a1-4)]GlcNAc
# How it was run: as §1
# [29] = biological target: Neu5Ac(a2-3)Gal(b1-3)[Fuc(a1-4)]GlcNAc(b1-3)Gal(b1-4)[Fuc(a1-3)]GlcNAc
# How it was run: as §1
# [30] = biological target: Neu5Ac(a2-3)Gal(b1-3)[GlcNAc(b1-6)]GalNAc
# How it was run: as §1
# [31] = biological target: Neu5Ac(a2-3)Gal(b1-3)[Neu5Ac(a2-6)]GalNAc
# How it was run: as §1
# [32] = biological target: Neu5Ac(a2-3)Gal(b1-3)[Neu5Ac(a2-6)]GlcNAc(b1-3)[Fuc(a1-3)[Gal(b1-4)]GlcNAc(b1-6)]Gal(b1-4)Glc
# How it was run: as §1
binder,measurement,setting,value
"Epa3 (Candida glabrata), Q6VBI8_CANGB (protein) MGSSHHHHHHSSGLVPRGSHMNDLGFSLFEKRELSSQNPFGYPIGCSPQDVAIIPGLTMELYSYPIVSGTPPNCYDASYVDPEYPRTGYLKRKMVGKSTGVTGNLNYKYSVEKACMVKYGNLPAGYNYNEPLTVSNFTMILYGYFKAQTTGLHTFFVNADDLLYINFGAGNAFDCCKREDSKTKLGEYVAYDIWHVDSSKNKVSLFLEKDLYYPIRMFFNNIGKDSSLDLSFSVNGATDQISDFSGYLYSVPDQPDTCPAHIGYDTTCR",glycan array binding signal (z-score),[1],-0.293
same,glycan array binding signal (z-score),[2],-0.309
same,glycan array binding signal (z-score),[3],-0.086
same,glycan array binding signal (z-score),[4],-0.175
same,glycan array binding signal (z-score),[5],-0.316
same,glycan array binding signal (z-score),[6],-0.403
same,glycan array binding signal (z-score),Man(a1-3)[Man(a1-6)]Man,0.007
same,glycan array binding signal (z-score),[7],-0.303
same,glycan array binding signal (z-score),[8],-0.229
same,glycan array binding signal (z-score),[9],-0.086
same,glycan array binding signal (z-score),[10],-0.189
same,glycan array binding signal (z-score),[11],-0.155
same,glycan array binding signal (z-score),Man(a1-6)Man,0.082
same,glycan array binding signal (z-score),Man(b1-4)GlcNAc,-0.319
same,glycan array binding signal (z-score),MurNAc(b1-4)GlcNAc,-0.357
same,glycan array binding signal (z-score),Neu5Ac(a2-3)Gal,-0.16
same,glycan array binding signal (z-score),[12],-0.088
same,glycan array binding signal (z-score),[13],-0.08
same,glycan array binding signal (z-score),[14],-0.327
same,glycan array binding signal (z-score),[15],0.075
same,glycan array binding signal (z-score),[16],-0.264
same,glycan array binding signal (z-score),[17],-0.28
same,glycan array binding signal (z-score),[18],-0.25
same,glycan array binding signal (z-score),[19],-0.394
same,glycan array binding signal (z-score),[20],-0.323
same,glycan array binding signal (z-score),[21],-0.312
same,glycan array binding signal (z-score),[22],-0.339
same,glycan array binding signal (z-score),[23],-0.371
same,glycan array binding signal (z-score),[24],0.022
same,glycan array binding signal (z-score),[25],-0.336
same,glycan array binding signal (z-score),[26],-0.41
same,glycan array binding signal (z-score),[27],-0.237
same,glycan array binding signal (z-score),[28],-0.181
same,glycan array binding signal (z-score),[29],-0.206
same,glycan array binding signal (z-score),[30],-0.303
same,glycan array binding signal (z-score),[31],-0.038
same,glycan array binding signal (z-score),[32],-0.338
